From PubChem BioAssay AID1956 (SRMLSC, 2009)
Some of the results follow. Further columns of the screen follow, without active or inactive calls.

Assay: compounds boosting herpes simplex virus growth – fold increase, host cell viability (AID 1956); note: tested in PC3 cells
Details: HSV replication augmentation in cells; fold increase: measured here: primary screen fold increase 10 uM, at 10 µM, stronger effect = higher value; viability: measured here: host cell viability series, at 25 µM, stronger effect = lower value
For `COc1ccc(-n2c(C)cc(/C=C3/SC(=S)N(C)C3=O)c2C)cc1`, the fold increase was 1.74 and the viability was 92.7%. Work on `CCOc1ccc(N2C(=O)S/C(=C\c3ccc(O)c(OC)c3)C2=O)cc1` yielded a fold increase of 1.73 and a viability of 96.3%. Compound `CN1C(=O)/C(=C/c2coc3ccc(O)cc3c2=O)SC1=S` has a fold increase of 1.45 and a viability of 102%. `Cc1cc(SCC(=O)c2ccccc2)n2nc(C)nc2n1` gave a fold increase of 1.49 and a viability of 89%. `CCN(CC)C1=CC2=CC(=C(C#N)C#N)CCC2CC1` (stereo unspecified) gave a fold increase of 6.36 and a viability of 93.5%. In the case of `CC(=O)Nc1nc2n(n1)C(c1ccc(F)cc1)C=C(c1ccccc1)N2` (stereo unspecified), the fold increase is reported as 1.16 and the viability is reported as 97.6%. With `COC(=O)c1ccc(N)c(N=CC2=C(O)CC(C)(C)CC2=O)c1` the fold increase was 2.04 and the viability was 90.5%. Compound `CCOC(=O)/C(C#N)=C\C=C1C=CN(C)C=C1` has a fold increase of 1.48 and a viability of 89%. `Cc1onc(-c2ccccc2)c1C(=O)c1ccccc1` showed a fold increase of 1.38 and a viability of 95.6%. `Cc1ccc(S(=O)(=O)Oc2ccc(/C=C(/NC(=O)c3ccccc3)C(=O)Nc3ccccc3)cc2)cc1` showed a fold increase of 1.11. `Cc1cc(S(=O)(=O)N2CCN(c3c(C)cccc3C)CC2)ccc1F` showed a fold increase of 1.43 and a viability of 97.5%. `COc1ccc2nc(NC(=O)CCN3C(=O)c4ccccc4C3=O)sc2c1` showed a fold increase of 1.33 and a viability of 98.1%. With `CN1/C(=C/C=C(C#N)C#N)C(C)(C)c2ccccc21` the fold increase was 3.76 and the viability was 101%. `N#Cc1c(N)sc(=S)c2c1CCN(Cc1ccccc1)C2` gave a fold increase of 1.4. With `COc1ccccc1-n1c(C)c2c(OC)cccc(=O)c2c1C` the fold increase was 1.35 and the viability was 102%. For `CN(C)S(=O)(=O)Nc1ccc2c(c1)OCO2`, the fold increase was 1.38 and the viability was 91.9%. `N=c1c2c(-c3ccccc3)c(-c3ccccc3)n(Cc3ccco3)c2ncn1CCO` showed a fold increase of 1.03. `Nc1nc(=S)[nH]c2c1C1(CCCC1)Cc1ccccc1-2` showed a fold increase of 1.32. For `COc1cccc2c1C(=O)C=C(C)C2=O`, the fold increase was 7.39. Work on `CC1CCc2nn(CC(=O)N3CCc4ccccc43)cc2C1` (stereo unspecified) yielded a fold increase of 1.39 and a viability of 94.9%. For `Cc1c(Cl)cccc1NC(=S)NCCC(c1ccccc1)c1ccccc1`, the fold increase was 1.29. Compound `CC(C)(C)c1ccc(C(=S)N2CCN(c3ccccc3)CC2)cc1` has a fold increase of 1.37 and a viability of 95%. `N#C/C(=C\C1=C(N2CCOCC2)C(=C\c2ccccc2)/CC1)C(=O)Nc1ccccc1F` showed a fold increase of 1.68 and a viability of 88.2%. Compound `COc1cccc(C2C(C#N)=C(N)Oc3c2oc(CO)cc3=O)c1` (stereo unspecified) has a fold increase of 1.47 and a viability of 2.73%. `O=c1[nH]c2ccccc2nc1/C=C(\O)c1cccs1` showed a fold increase of 3.59. `Nc1c(C(=O)Nc2ccc(S(=O)(=O)N3CCCC3)cc2)sc2nc3ccc(OC(F)(F)F)cc3cc12` gave a fold increase of 1.33 and a viability of 17.1%. Compound `O=C(N/N=C/c1cc([N+](=O)[O-])ccc1O)C12CC3CC(CC(C3)C1)C2` has a fold increase of 1.58 and a viability of 106%. With `CCOc1ccc2nc(NC(=O)CCC(=O)c3cccs3)sc2c1` the fold increase was 1.23. Compound `c1coc(CSc2ncnc3c2oc2ccccc23)c1` has a fold increase of 1.43 and a viability of 99.6%. Work on `COc1ccccc1N1C(C)=CC(=C(C#N)c2nc3ccccc3s2)C=C1C` yielded a fold increase of 1.59. `Cn1cnnc1SCC(=O)Nc1cccc(S(=O)(=O)N2CCCCCC2)c1` gave a fold increase of 1.34 and a viability of 91.6%. With `COc1ccccc1/C=C/C=C1\Oc2c(ccc(O)c2CN(C)C)C1=O` the fold increase was 2.84 and the viability was 90.9%. `N#CC(C#N)=C1C=C2C=C(N3CCOCC3)CCC2CC1` (stereo unspecified) gave a fold increase of 6.82 and a viability of 91.8%. For `O=C(c1cc2n(n1)C(C(F)(F)F)CC(c1ccco1)N2)N1CCc2ccccc2C1` (stereo unspecified), the fold increase was 1.32 and the viability was 77.7%. `Cn1c(=O)c2c(ncn2Cc2ccc(Cl)cc2)n(C)c1=O` showed a fold increase of 1.74 and a viability of 83.6%. `O=c1cc(N2CCCCC2)c(-c2ccccc2)nn1Cc1c(Cl)cccc1Cl` gave a fold increase of 1.4 and a viability of 76.2%. `CC(Cc1ccccc1)C(=O)Nc1ccccc1` (stereo unspecified) showed a fold increase of 1.32. Compound `Fc1ccc(-n2nnc(-c3ncc[nH]3)n2)cc1` has a fold increase of 1.43 and a viability of 91%. `O=c1/c(=C\c2ccc(O)cc2)sc2n1C(c1ccccc1)C(c1ccccc1)=NN=2` (stereo unspecified) showed a fold increase of 1.15. `CC(=O)c1sc(N/N=C\c2ccccc2O)nc1C` showed a fold increase of 3.08 and a viability of 90.4%. `CCN(C(C)=O)c1nc(CCl)cs1` showed a fold increase of 1.38 and a viability of 100%. Compound `COc1ccc(/C=C2\CC/C(=C\c3ccc(OC)cc3OC)C2=O)c(OC)c1` has a fold increase of 2.3. Work on `CN(C)c1ccc(/C=C/C=C2/SC(=S)N(c3ccccc3)C2=O)cc1` yielded a fold increase of 1.96 and a viability of 78.2%. Work on `Cc1ccc(NC(=O)CSc2nnc(-c3cccnc3)n2-c2ccc(C)cc2)cc1` yielded a fold increase of 1.12. Compound `CCc1ccc(C(=O)NNc2ccc(C)c(Cl)c2)cc1` has a fold increase of 1.4 and a viability of 96.4%. With `CCOC(=O)CC(=O)CSc1nc(-c2ccccc2)cc(-c2ccccc2)c1C#N` the fold increase was 2.15 and the viability was 98.7%. Work on `Cc1cc(C(F)(F)F)c(C#N)c(SCC(=O)Nc2nc3ccccc3s2)n1` yielded a fold increase of 2.16. `CCOC(=O)Cc1csc(/N=C/c2c(O)n(-c3ccc(C)cc3C)c(=O)c3ccccc23)n1` gave a fold increase of 1.9 and a viability of 92.9%. With `CCn1nc(-c2ccccc2)c2nc3ccccc3nc21` the fold increase was 2.4 and the viability was 98.1%. For `CCCN1C(=O)/C(=C\C=C2\N(CC)c3ccccc3C2(C)C)SC1=S`, the fold increase was 9.15 and the viability was 94.4%.
